“And” between values parts separate entries of the source, which are not always exact repeats. Equal values may be shown once. Among all 390,000 compounds or so, about 930 (0.24%) were called active. This list was built around the results that the source calls inconclusive (neither active nor inactive); the mix of calls is not that of the screen. The call rests on the fitted dose curve; in most records, active means well fitted activation curve with a large enough effect; inconclusive means small, poorly fitted or top-dose-only effect; inactive means no such curve, though single readings can be large or run the other way. A potency beside an inconclusive call is a rough fit, not a confirmed value.
Experiment: qHTS for Suppressors of FUS Proteinopathy: Primary screen using FUS-linked yeast assay; further: nearly all actives have a fitted effect of over 55% in size;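 on growth rescue (activation): plate controls were DMSO vehicle for no effect and reference control for full effect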
Settings: S. cerevisiae FUS-expressing, OD600, 24 h; Potency: growth rescue; growth rescue (activation): at 76.6 µM (top of the series)
Method in brief: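 FUS-expressing yeast, raffinose-pregrown, induced in 2% galactose minimal medium at OD 0.005; compounds in a dilution series, 24hr at 30C. Growth restoration read as absorbance at 600 nm. CP55940 positive control, DMSO negative.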
Potency means the concentration at half of the fitted maximal effect; tags describe the fitted curve by direction and shape.

Q: For `CC[C@]12c3[nH]c4cc(CCC(=O)N(C)C)ccc4c3CCN1C(=O)[C@@H](CC(=O)NC/C=C(\C)CCC=C(C)C)C[C@@H]2C(=O)N1CCN(C(=O)c2ccco2)CC1`, which Potency is on record?
A: The Potency was inconclusive: 28.2 µM [activator, partial curve, poor fit].

Q: Which Potency does the source give for `CCCC(=O)Nc1cc(C)c(NC(=O)C23CC4CC(CC(C4)C2)C3)cn1` here?
A: Its Potency is inconclusive: 8.91 µM [activator, full curve, poor fit].

Q: Which Potency does the source give for `CCN(CC)c1ccc2c(C)c(-c3ccc(N)cc3)c(=O)oc2c1` here?
A: Its Potency is inconclusive: 31.6 µM [activator, single point].

Q: With `Nc1ccc(N2CCN(c3ccc(F)cc3)CC2)cc1` as the compound, how does the “growth rescue (activation)” value read?
A: The value was inactive: 17.3%.

Q: Which Potency does the source give for `Cc1nn(-c2ccccc2)c(Cl)c1/C=C1\SC(=S)N(CCCCCC(=O)O)C1=O` here?
A: Its Potency is inconclusive: 25.1 µM [activator, single point].

Q: Which “growth rescue (activation)” value does the source give for `COc1ccccc1CNS(=O)(=O)c1ccc2c(c1)NC(=O)CC(=O)N2` here?
A: The value was inactive: -0.34%.

Q: With `COc1ccccc1Nc1nn2c(=O)c3ccc(C(=O)N4CCCC(C)C4)cc3nc2s1` (stereo not given) as the compound, how does the Potency read?
A: Its Potency is inconclusive: 31.6 µM [activator, partial curve, poor fit].

Q: Which Potency does the source give for `CC(C)c1ccc(NC(=O)C2CCCN(S(=O)(=O)c3ccc4c(c3)C(C)(C)C(=O)N4C)C2)cc1` (stereo not given) here?
A: The Potency was inconclusive: 14.1 µM [activator, partial curve].

Q: With `C/C(=C\C(=O)C(F)(F)F)Nc1ccc(C(F)(F)F)cc1` as the compound, how does the “growth rescue (activation)” value read?
A: The value was inactive: -3.02%.

Q: With `N/C(=N\NC(=O)c1cccs1)c1cc2cc(Cl)ccc2oc1=O` as the compound, how does the “growth rescue (activation)” value read?
A: The value was inactive: 51.8%.

Q: With `C=CCn1c(COc2ccc(C)cc2)nnc1SCc1ccc([N+](=O)[O-])cc1` as the compound, how does the Potency read?
A: The Potency was inconclusive: 31.6 µM [activator, partial curve, poor fit].

Q: Which “growth rescue (activation)” value does the source give for `COc1ccc(C)cc1NC(=O)CN1CCN(S(=O)(=O)c2ccc(F)cc2)CC1` here?
A: Its value is inactive: 12.4%.

Q: For `Cc1ccc(NC(=S)NNC(=O)CSc2nc3ccccc3c(=O)n2-c2ccc(C)cc2)cc1`, which Potency is on record?
A: The Potency was inconclusive: 8.91 µM [activator, partial curve].

Q: With `CCOC(=O)c1c(NC(=O)CSc2nnc(C)s2)sc2c1CCC(CC)C2` (stereo not given) as the compound, how does the Potency read?
A: The Potency was inconclusive: 56.2 µM [activator, partial curve, poor fit].

Q: With `CCc1cc2c(cc3c(=O)n(CC(=O)NC4CCC(C)CC4)ncn32)s1` (stereo not given) as the compound, how does the “growth rescue (activation)” value read?
A: The value was inactive: 3.08%.

Q: With `O=C(Nc1cccs1)Nc1ccc(Br)cc1F` as the compound, how does the “growth rescue (activation)” value read?
A: Its value is inactive: 4.17%.

Q: With `COc1ccc(Cl)cc1NC(=O)N1CCN(c2ccccc2OC)CC1` as the compound, how does the Potency read?
A: The Potency was inconclusive: 14.1 µM [activator, partial curve].

Q: For `COc1cc2nc(NCc3ccc(C)cc3)n3nc(-c4ccccc4)nc3c2cc1OC`, which “growth rescue (activation)” value is on record?
A: The value was inactive: -0.242%.

Q: With `O=C(OCc1cn(Cc2ccc(F)c(F)c2)nn1)N1CCOCC1` as the compound, how does the growth rescue (activation) read?
A: Its growth rescue (activation) is inconclusive: -45.8% [activator].

Q: For `Cc1ccc(-c2cc(C(=O)N/N=C/C(Br)=C/c3ccccc3)n[nH]2)o1`, which Potency is on record?
A: Its Potency is inconclusive: 50.1 µM [activator, single point].

Q: For `Cc1ccc(NC(=O)CSc2nc3ccccc3nc2N2CCOCC2)cc1`, which Potency is on record?
A: Its Potency is inconclusive: 39.8 µM [activator, single point] and active: 31.6 µM.

Q: Which Potency does the source give for `Cc1ccc(C)n1-c1cc(S(=O)(=O)N2CCOCC2)ccc1N1CCCC1` here?
A: Its Potency is inconclusive: 31.6 µM [activator, partial curve, poor fit].

Q: For `CC1(C)OC(=O)C2=C(C[C@@H](CCc3ccccc3)O[C@@H]2c2ccc(Cl)cc2)O1`, which “growth rescue (activation)” value is on record?
A: Its value is inactive: 29.7%.

Q: With `COc1ccc(NC(=O)c2cc(-c3ccc(C)o3)nc3ccccc23)cc1OC` as the compound, how does the Potency read?
A: Its Potency is inconclusive: 35.5 µM [activator, single point].

Q: For `Cc1ccc(NC(=O)c2nc[nH]c2C(=O)NCCCNC(=O)c2[nH]cnc2C(=O)Nc2ccc(C)cc2)cc1`, which “growth rescue (activation)” value is on record?
A: Its value is inactive: -13.6%.

Q: For `CCN1c2cccc3cccc(c23)S1(=O)=O`, which growth rescue (activation) is on record?
A: The growth rescue (activation) was inconclusive: 56.3% [activator].

Q: Which Potency does the source give for `COc1ccc(S(=O)(=O)N2CCN(Cc3nc4ccc(C)cc4o3)CC2)cc1Cl` here?
A: Its Potency is inconclusive: 31.6 µM [activator, single point].

Q: For `CCOC(=O)c1c(C)nc(C(Cl)(Cl)Cl)nc1N`, which “growth rescue (activation)” value is on record?
A: The value was inactive: 2.01%.

Q: For `S=C(NNc1ccnc2cc(Cl)ccc12)Nc1ccccc1Cl`, which Potency is on record?
A: Its Potency is inconclusive: 39.8 µM [activator, partial curve, poor fit].

Q: Which Potency does the source give for `CCCS(=O)(=O)c1c(S(=O)(=O)CCC)c2cnccn2c1C(=O)c1ccc(Cl)cc1` here?
A: The Potency was inconclusive: 39.8 µM [activator, single point].

Q: For `CCc1nc2ccccc2c(C(=O)OCC(=O)Nc2cccc(S(=O)(=O)NC3=NCCCCC3)c2)c1C`, which Potency is on record?
A: The Potency was inconclusive: 25.1 µM [activator, single point].

Q: Which Potency does the source give for `CCOc1ccc(-c2nc(CSCC(=O)NCc3ccc(Cl)cc3)c(C)o2)cc1` here?
A: Its Potency is inconclusive: 44.7 µM [activator, partial curve, poor fit].

Q: With `Cc1ccccc1NC(=O)Cc1nc(-c2c[nH]c(C(=O)N3CCCC3)c2)cs1` as the compound, how does the Potency read?
A: Its Potency is inconclusive: 44.7 µM [activator, single point].

Q: With `Oc1ccc(Nc2nc(-c3ccccc3O)nc3ccccc23)cc1` as the compound, how does the “growth rescue (activation)” value read?
A: Its value is inactive: -13%.

Q: Which “growth rescue (activation)” value does the source give for `CC(C)CCNC(=O)CN1C(=O)CSc2ccc(S(=O)(=O)N3CCCCC3)cc21` here?
A: Its value is inactive: 30.7%.

Q: For `COc1ccc(CCNC(=O)c2ccc3c(c2)ncn3-c2ccc(C)cc2C)cc1OC`, which Potency is on record?
A: The Potency was inconclusive: 44.7 µM [activator, single point].

Q: With `CCCCCCN1C[C@H](n2cc(-c3ccc(F)cc3)nn2)[C@@H](O)C[C@@H]1c1ccc(Cl)cc1` as the compound, how does the Potency read?
A: Its Potency is inconclusive: 31.6 µM [activator, single point].

Q: Which Potency does the source give for `CCCCCCSc1ccc([C@H]2N[C@@](Cc3ccccc3)(C(=O)OC)[C@H]3C(=O)N(C)C(=O)[C@@H]23)cc1` here?
A: The Potency was inconclusive: 25.1 µM [activator, partial curve, poor fit].

Q: For `Cc1cccc(-n2ncc3c(NC4CCCCC4)ncnc32)c1`, which “growth rescue (activation)” value is on record?
A: Its value is inactive: -4.48%.

Q: For `CCN1C(C(=O)c2ccccc2)=C(OC(=O)c2ccccc2OC)c2ccccc2S1(=O)=O`, which “growth rescue (activation)” value is on record?
A: The value was inactive: 8.91%.

Q: For `CCCCCc1nc2c(c(=O)c3ccccc3n2C)c(=O)n1Cc1ccc(OC)cc1`, which Potency is on record?
A: The Potency was inconclusive: 50.1 µM [activator, single point].

Q: With `Cc1ccc2c(c1C)NC(=O)C21N2CCCC2C(C(=O)c2ccc3ccccc3c2)C12C(=O)Nc1ccccc12` (stereo not given) as the compound, how does the Potency read?
A: The Potency was inconclusive: 20 µM [activator, single point].

Q: Which “growth rescue (activation)” value does the source give for `O=C1CC(c2ccc(O)cc2)Oc2ccccc21` (stereo not given) here?
A: Its value is inactive: -0.423%.

Q: For `S=C(NNc1nc(Nc2ccccc2)nc(N2CCCCC2)n1)NC1CCCCC1`, which Potency is on record?
A: The Potency was inconclusive: 39.8 µM [activator, single point].

Q: Which Potency does the source give for `COc1ccc(-c2cc(=O)oc3cc(OCC(=O)N[C@@H](Cc4c[nH]c5ccccc45)C(=O)O)ccc23)cc1` here?
A: Its Potency is inconclusive: 20 µM [activator, partial curve].

Q: With `COc1ccc2c(CC(=O)OCC(=O)Nc3cccc(C)c3)coc2c1` as the compound, how does the Potency read?
A: Its Potency is inconclusive: 11.2 µM [activator, full curve, poor fit].

Q: With `Cc1ccc(NC(=O)CN(C)C(=O)CCCN2C(=O)c3ccccc3C2=O)cc1` as the compound, how does the Potency read?
A: Its Potency is inconclusive: 50.1 µM [activator, single point].

Q: With `COc1ccc(C2C(C#N)=C(N)N(c3ccccc3)C3=C2C(=O)CCC3)cc1Cn1cc([N+](=O)[O-])cn1` (stereo not given) as the compound, how does the Potency read?
A: Its Potency is active: 25.1 µM.

Q: For `CCN(CC)C(=O)COC(=O)C1CCN(S(=O)(=O)c2ccc3c(c2)OCCO3)CC1`, which Potency is on record?
A: The Potency was inconclusive: 28.2 µM [activator, partial curve, poor fit].

Q: For `COc1ccc(-n2c(=O)c(CCC(=O)N3CCN(c4ccccc4O)CC3)nc3ccccc32)cc1`, which Potency is on record?
A: The Potency was inconclusive: 10 µM [activator, full curve].

Q: For `COc1ccc([C@H]2CN(c3ccccc3)C(=O)[C@@H]2CC(=O)Nc2ccccc2)cc1`, which Potency is on record?
A: Its Potency is inconclusive: 31.6 µM [activator, partial curve].

Q: With `Cc1nc(-c2ccc(S(=O)(=O)Nc3ccc(Cl)c(C(F)(F)F)c3)cc2)co1` as the compound, how does the “growth rescue (activation)” value read?
A: Its value is inactive: -16.1%.

Q: For `O=S(=O)(c1ccc(F)cc1)n1c(CN2CCOCC2)nc2ccccc21`, which “growth rescue (activation)” value is on record?
A: The value was inactive: -15.7%.

Q: Which “growth rescue (activation)” value does the source give for `CCN(CC)CCOC(=O)c1ccc(NC(=O)c2cc3c(s2)-c2ccccc2OC3)cc1` here?
A: The value was inactive: 18.9%.

Q: Which “growth rescue (activation)” value does the source give for `CCN1CCSc2ccc(C(=O)NCc3ccccc3C)cc21` here?
A: Its value is inactive: 12.6%.

Q: Which Potency does the source give for `CCN(CC)S(=O)(=O)c1ccc2oc(C(=O)NCc3ccc(F)cc3)c(C)c2c1` here?
A: The Potency was inconclusive: 31.6 µM [activator, partial curve, poor fit].

Q: For `CC1CC(C)CN(S(=O)(=O)c2ccc(C(=O)N3CCN(c4ccccc4)CC3)cc2)C1` (stereo not given), which Potency is on record?
A: Its Potency is inconclusive: 31.6 µM [activator, single point].

Q: With `O=C(Nc1cccc(N2CCCC2)c1)c1cccs1` as the compound, how does the “growth rescue (activation)” value read?
A: The value was inactive: 31.7%.

Q: For `Nc1nnc(CC(=O)N/N=C\c2ccc(-c3cccc(Cl)c3)o2)s1`, which Potency is on record?
A: Its Potency is inconclusive: 50.1 µM [activator, single point].

Q: For `CCOC(=O)c1c(C)[nH]c(C)c1C(=O)COC(=O)/C=C/c1ccccc1[N+](=O)[O-]`, which Potency is on record?
A: The Potency was inconclusive: 10 µM [activator, partial curve].

Q: Which Potency does the source give for `COc1ccc(N2C(=O)CSC23C(=O)N(Cc2ccc(C)cc2)c2ccccc23)cc1Cl` (stereo not given) here?
A: Its Potency is inconclusive: 14.1 µM [activator, partial curve].

Q: Which Potency does the source give for `Cc1nc(NCc2ccco2)c2c3c(sc2n1)CCC3` here?
A: Its Potency is inconclusive: 15.8 µM [activator, partial curve].

Q: With `CSc1nc2ccccc2n1Cc1c(Cl)cccc1Cl` as the compound, how does the Potency read?
A: Its Potency is inconclusive: 31.6 µM [activator, partial curve].

Q: With `CSc1ccccc1NC(=O)c1noc2c1CCC2` as the compound, how does the Potency read?
A: Its Potency is inconclusive: 35.5 µM [activator, single point].

Q: With `COc1ccccc1NC(=S)N1C2CCC1CC(NC(=O)NC13CC4CC(CC(C4)C1)C3)C2` (stereo not given) as the compound, how does the Potency read?
A: The Potency was inconclusive: 31.6 µM [activator, single point].

— PubChem BioAssay AID1347120 (National Center for Advancing Translational Sciences (NCATS), 2019)
